The other results are listed elsewhere or left out. At the low end of the ranking the order means little.
Each sequence was assayed against GST-SBP-SLBP (stem-loop binding protein) (UniProt Q14493) (assay: targeted RNA Bind-n-Seq). Settings: RBNS binding buffer: 25 mM Tris pH 7.5, 150 mM KCl, 3 mM MgCl2, 0.1% Tween, 0.5 mg/mL BSA, 1 mM DTT; 27 nM protein, 750 pM RNA pool; temperature not stated; high values mean tight binding.
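Also: DESeq read counts versus GST-SBP nonspecific binding control pulldown.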

Row | Sequence | binding signal (log2 fold change)
1 | GGUCACGUCUCAAUCAACUCAAUCGAGGGGGGGAAAACCCCUUUGCCCUCAUAAUCAACAGCUCGCAGUCAAG | -0.0231
2 | GGUCACGUCUCAAUCAACUCAACUUCCAGGGAAAUCCCUGGCUAUCUCAACAGCUCGCAGUCAAG | -0.156
3 | GGUCACGUCUCAAUCAACUCAAUCUCCAGGGAAAUCCCUGGCAAUUUCAACAGCUCGCAGUCAAG | -0.0249
4 | GGUCACGUCUCAAUCAACUCUUUCCCAGGAGUUUUCUCCUGUUAUCUCAACAGCUCGCAGUCAAG | 0.081
5 | GGUCACGUCUCAAUCAACUCUUCUUCAGGAGUUUUCUCCUGUAUACUCAACAGCUCGCAGUCAAG | 0.09
6 | GGUCACGUCUCAAUCAACUCUUCCUCAGGAGUUUACUCCUGCAUACUCAACAGCUCGCAGUCAAG | 0.0409
7 | GGUCACGUCUCAAUCAACUCAUUUCCAGGAGUUUUCUCCUGUAUUCUCAACAGCUCGCAGUCAAG | -0.00867
8 | GGUCACGUCUCAAUCAACUCCAAAGAGGGGGGGAAAACCCCUUUGCCCUCACCAUCAACAGCUCGCAGUCAAG | -0.212
9 | GGUCACGUCUCAAUCAACUCUUCUUCAGGAGUUUCCUCCUGCAAACUCAACAGCUCGCAGUCAAG | 0.0748
10 | GGUCACGUCUCAAUCAACUCCCUAGAGGGGGGGAAAACCCCUUUACCCUCAAUCUCAACAGCUCGCAGUCAAG | 0.118
11 | GGUCACGUCUCAAUCAACUCAUUAGAGGGGGGGAAAACCCCUUUACCCUCCAUUUCAACAGCUCGCAGUCAAG | -0.276
12 | GGUCACGUCUCAAUCAACUCUAUGUCAGGAGUUUCCUCCUGUUAAUUCAACAGCUCGCAGUCAAG | -0.199
13 | GGUCACGUCUCAAUCAACUCAAUCCCAGGAGUUUCCUCCUGUUAUUUCAACAGCUCGCAGUCAAG | 0.129
14 | GGUCACGUCUCAAUCAACUCAUCCGCAGGAGUUUUCUCCUGGUAAUUCAACAGCUCGCAGUCAAG | 0.138
15 | GGUCACGUCUCAAUCAACUCAUCCCCCAGGGAAACCCCUGGUAUACUCAACAGCUCGCAGUCAAG | 0.0408
16 | GGUCACGUCUCAAUCAACUCAUCUUCCAGGGAAAGCCCUGGCUAACUCAACAGCUCGCAGUCAAG | -0.127
17 | GGUCACGUCUCAAUCAACUCUAUUUCCAGGGAAAGCCCUGGCUAAUUCAACAGCUCGCAGUCAAG | -0.294
18 | GGUCACGUCUCAAUCAACUCAUCUUCCAGGGAAAGCCCUGGCAAACUCAACAGCUCGCAGUCAAG | -0.14
19 | GGUCACGUCUCAAUCAACUCAAUCCCCAGGGAAAGCCCUGGCUAUCUCAACAGCUCGCAGUCAAG | -0.203
20 | GGUCACGUCUCAAUCAACUCUUUCGCAGGAGUUUCCUCCUGGUUAUUCAACAGCUCGCAGUCAAG | -0.0225
21 | GGUCACGUCUCAAUCAACUCAAUUCCAGGAGUUUCCUCCUGCUAUCUCAACAGCUCGCAGUCAAG | -0.0201
22 | GGUCACGUCUCAAUCAACUCCCUAGAGGGGGGGAAAACCCCUUUACCCUCAUCAUCAACAGCUCGCAGUCAAG | -0.151
23 | GGUCACGUCUCAAUCAACUCUUCGCCCAGGGAAAGCCCUGGUAAUCUCAACAGCUCGCAGUCAAG | -0.179
24 | GGUCACGUCUCAAUCAACUCUAUUUCCAGGGAAAUCCCUGGCGUAUUCAACAGCUCGCAGUCAAG | 0.037
25 | GGUCACGUCUCAAUCAACUCAACUUCCAGGGAAAACCCUGGCUUUUUCAACAGCUCGCAGUCAAG | 0.00556

Row | Sequence | binding signal (log2 fold change)
26 | GGUCACGUCUCAAUCAACUCAACUUCAGGAGUUUUCUCCUGCUUAUUCAACAGCUCGCAGUCAAG | -0.0413
27 | GGUCACGUCUCAAUCAACUCUUUUUCAGGAGUUUUCUCCUGCAUUCUCAACAGCUCGCAGUCAAG | -0.106
28 | GGUCACGUCUCAAUCAACUCUAGUCCCAGGGAAAUCCCUGGCAUAUUCAACAGCUCGCAGUCAAG | -0.0478
29 | GGUCACGUCUCAAUCAACUCAUCAGAGGGGGGGAAAACCCCUUUGCCCUCCACAUCAACAGCUCGCAGUCAAG | 0.401
30 | GGUCACGUCUCAAUCAACUCAACUCCCAGGGAAAACCCUGGCUUUCUCAACAGCUCGCAGUCAAG | 0.128
31 | GGUCACGUCUCAAUCAACUCUAUCCCCAGGGAAACCCCUGGUAUUUUCAACAGCUCGCAGUCAAG | -0.206
32 | GGUCACGUCUCAAUCAACUCAAUCCCAGGAGUUUACUCCUGUUAAUUCAACAGCUCGCAGUCAAG | -0.136
33 | GGUCACGUCUCAAUCAACUCAUCUCCCAGGGAAAGCCCUGGUUAAUUCAACAGCUCGCAGUCAAG | -0.134
34 | GGUCACGUCUCAAUCAACUCUUUCUCAGGAGUUUCCUCCUGUAAUGUCAACAGCUCGCAGUCAAG | -0.0675
35 | GGUCACGUCUCAAUCAACUCUUCUUCCAGGGAAAGCCCUGGCAUAUUCAACAGCUCGCAGUCAAG | -0.0767
36 | GGUCACGUCUCAAUCAACUCCUAAGAGGGGGGGAAAACCCCUUUGCCCUCAGAAUCAACAGCUCGCAGUCAAG | -0.291
37 | GGUCACGUCUCAAUCAACUCUCACGAGGGGGGGAAAACCCCUUUACCCUCAACAUCAACAGCUCGCAGUCAAG | -0.52
38 | GGUCACGUCUCAAUCAACUCUUCUCCAGGAGUUUACUCCUGUUUAUUCAACAGCUCGCAGUCAAG | -0.0975
39 | GGUCACGUCUCAAUCAACUCUAAAGAGGGGGGGAAAACCCCUUUGCCCUCAACUUCAACAGCUCGCAGUCAAG | 0.209
40 | GGUCACGUCUCAAUCAACUCAUCUUCAGGAGUUUUCUCCUGCAAUCUCAACAGCUCGCAGUCAAG | 0.0281
41 | GGUCACGUCUCAAUCAACUCUAUCCCAGGAGUUUUCUCCUGCUUAUUCAACAGCUCGCAGUCAAG | 0.204
42 | GGUCACGUCUCAAUCAACUCUAUGGAGGGGGGGAAAACCCCUUUACCCUCAACCUCAACAGCUCGCAGUCAAG | 0.00788
43 | GGUCACGUCUCAAUCAACUCCUAAGAGGGGGGGAAAACCCCUUUGCCCUCAAACUCAACAGCUCGCAGUCAAG | 0.0771
44 | GGUCACGUCUCAAUCAACUCAUUUCCCAGGGAAAACCCUGGUAUAUUCAACAGCUCGCAGUCAAG | -0.0565
45 | GGUCACGUCUCAAUCAACUCUAUAGAGGGGGGGAAAACCCCUUUACCCUCACCAUCAACAGCUCGCAGUCAAG | 0.221
46 | GGUCACGUCUCAAUCAACUCAUCUCCAGGAGUUUGCUCCUGCAAUUUCAACAGCUCGCAGUCAAG | 0.0771
47 | GGUCACGUCUCAAUCAACUCAUUUCCAGGAGUUUCCUCCUGUUAACUCAACAGCUCGCAGUCAAG | -0.0064
48 | GGUCACGUCUCAAUCAACUCUAUCUCCAGGGAAAGCCCUGGCAUGUUCAACAGCUCGCAGUCAAG | 0.103
49 | GGUCACGUCUCAAUCAACUCUAUCCCCAGGGAAACCCCUGGCUUUUUCAACAGCUCGCAGUCAAG | -0.115
50 | GGUCACGUCUCAAUCAACUCAAUGUCAGGAGUUUCCUCCUGUUUUUUCAACAGCUCGCAGUCAAG | 0.0608

Row | Sequence | binding signal (log2 fold change)
51 | GGUCACGUCUCAAUCAACUCAUCCUCCAGGGAAAACCCUGGUUAUCUCAACAGCUCGCAGUCAAG | 0.189
52 | GGUCACGUCUCAAUCAACUCAUUCUCAGGAGUUUGCUCCUGCUUAUUCAACAGCUCGCAGUCAAG | 0.141
53 | GGUCACGUCUCAAUCAACUCUUCUUCCAGGGAAAUCCCUGGCUUACUCAACAGCUCGCAGUCAAG | -0.0266
54 | GGUCACGUCUCAAUCAACUCAAUCCCAGGAGUUUGCUCCUGCUAUUUCAACAGCUCGCAGUCAAG | -0.0993
55 | GGUCACGUCUCAAUCAACUCUACUCCAGGAGUUUUCUCCUGCUAUUUCAACAGCUCGCAGUCAAG | 0.125
56 | GGUCACGUCUCAAUCAACUCUUCCCCAGGAGUUUUCUCCUGUAAUUUCAACAGCUCGCAGUCAAG | 0.0741
57 | GGUCACGUCUCAAUCAACUCUUUUCCCAGGGAAAACCCUGGCAAAUUCAACAGCUCGCAGUCAAG | 0.0181
58 | GGUCACGUCUCAAUCAACUCAAUUCCAGGAGUUUGCUCCUGCUUAUUCAACAGCUCGCAGUCAAG | 0.102
59 | GGUCACGUCUCAAUCAACUCAGUCUCAGGAGUUUCCUCCUGCAAUUUCAACAGCUCGCAGUCAAG | -0.0445
60 | GGUCACGUCUCAAUCAACUCAAUCGAGGGGGGGAAAACCCCUUUACCCUCAACUUCAACAGCUCGCAGUCAAG | -0.28
61 | GGUCACGUCUCAAUCAACUCUACUUCAGGAGUUUACUCCUGCUAUCUCAACAGCUCGCAGUCAAG | -0.0433
62 | GGUCACGUCUCAAUCAACUCUCACGAGGGGGGGAAAACCCCUUUACCCUCAAUAUCAACAGCUCGCAGUCAAG | -0.134
63 | GGUCACGUCUCAAUCAACUCCAAAGAGGGGGGGAAAACCCCUUUACCCUCAUUCUCAACAGCUCGCAGUCAAG | -0.346
64 | GGUCACGUCUCAAUCAACUCUUUCCCAGGAGUUUUCUCCUGUAAUUUCAACAGCUCGCAGUCAAG | 0.00681
65 | GGUCACGUCUCAAUCAACUCAGUCUCAGGAGUUUUCUCCUGUUUAUUCAACAGCUCGCAGUCAAG | -0.298
66 | GGUCACGUCUCAAUCAACUCAACUUCAGGAGUUUCCUCCUGCUUUUUCAACAGCUCGCAGUCAAG | -0.144
67 | GGUCACGUCUCAAUCAACUCAACAGAGGGGGGGAAAACCCCUUUACCCUCCAUCUCAACAGCUCGCAGUCAAG | -0.0395
68 | GGUCACGUCUCAAUCAACUCAAUCUCAGGAGUUUUCUCCUGCAUUCUCAACAGCUCGCAGUCAAG | -0.0343
69 | GGUCACGUCUCAAUCAACUCAGUCCCAGGAGUUUACUCCUGUUUUCUCAACAGCUCGCAGUCAAG | 0.0558
70 | GGUCACGUCUCAAUCAACUCAAUCGAGGGGGGGAAAACCCCUUUACCCUCAAAAUCAACAGCUCGCAGUCAAG | -0.158
71 | GGUCACGUCUCAAUCAACUCCAAAGAGGGGGGGAAAACCCCUUUACCCUCGUCCUCAACAGCUCGCAGUCAAG | 0.369
72 | GGUCACGUCUCAAUCAACUCAUCGUCAGGAGUUUCCUCCUGUUAUUUCAACAGCUCGCAGUCAAG | 0.0969
73 | GGUCACGUCUCAAUCAACUCAAUUCCAGGAGUUUACUCCUGCAUAGUCAACAGCUCGCAGUCAAG | 0.138
74 | GGUCACGUCUCAAUCAACUCAUUCUCAGGAGUUUGCUCCUGUUAUCUCAACAGCUCGCAGUCAAG | -0.0468

— PMC5892938
